Sequences with one replicate were seen in a single cluster, so their values are uncertain.
The sequences below were run on ATP (assay: switch fluorescence ratio, 500 uM ATP over buffer (Cy3 cluster intensity, sum of 5 cycles each) (fold (ratio)); higher = stronger signal-on switching upon ATP binding; sequences stand for … in TCGTCGGCAGCGTCAGATGTGTATAAGAGACAGTTTTTTTTTTTTTTTTTTTTTTTTT…TC). Settings: aptamer strand: ATP DNA aptamer (quencher-CACCTGGGGGAGTATTGCGGAGGAAGG + anchor), 100 nM annealed; ATP concentration: 500 uM; one replicate.
How it was run: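 Clusters with intensities outside 100-1000 RFU were excluded. The remaining Cy3-labelled switching-strand clusters on a modified Illumina MiSeq flow-cell had been annealed to 100 nM quencher-labelled ATP aptamer and imaged in selection buffer, then after 15 min with 500 uM ATP at 22 °C, for five cycles separated by NaOH stripping and re-annealing. The fluorescence ratio, averaged per switch-domain sequence, is each cluster's summed target-cycle Cy3 intensity over its summed buffer-cycle Cy3 intensity.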
CGCATAAGTT was tested, and the switch fluorescence ratio was 1.38.
Work on CGCATACTTT yielded a switch fluorescence ratio of 3.81.
CGCATCGACT was tested, and the switch fluorescence ratio was 1.31.
Sequence CGCATCTTTA has a switch fluorescence ratio of 1.05.
Sequence CGCATTGATT has a switch fluorescence ratio of 1.03.
CGCCAAAATT gave a switch fluorescence ratio of 0.986.
Work on CGCCAATGC yielded a switch fluorescence ratio of 1.6.
In the case of CGCCACAAGG, the switch fluorescence ratio is reported as 1.23.
Work on CGCCACAGCG yielded a switch fluorescence ratio of 1.01.
Work on CGCCACGCCG yielded a switch fluorescence ratio of 0.947.
Work on CGCCAGATAG yielded a switch fluorescence ratio of 1.05.
For CGCCATATCA, the switch fluorescence ratio was 0.962.
Sequence CGCCATGAGG has a switch fluorescence ratio of 0.961.
With CGCCCATGAA the switch fluorescence ratio was 1.05.
With CGCCCCTCTC the switch fluorescence ratio was 1.03.
With CGCCCTCGAA the switch fluorescence ratio was 0.984.
For CGCCCTTGAA, the switch fluorescence ratio was 1.07.
CGCCGACTCG showed a switch fluorescence ratio of 1.05.
For CGCCGAGACA, the switch fluorescence ratio was 1.02.
CGCCGAGACG gave a switch fluorescence ratio of 1.05.
In the case of CGCCGCATTT, the switch fluorescence ratio is reported as 3.43.
Work on CGCCGGCAAT yielded a switch fluorescence ratio of 3.97.
For CGCCGTTGAG, the switch fluorescence ratio was 0.982.
For CGCCTACGGT, the switch fluorescence ratio was 1.04.
CGCCTCAAGC gave a switch fluorescence ratio of 1.44.
CGCCTCGTA was tested, and the switch fluorescence ratio was 1.03.
CGCGAATAAA showed a switch fluorescence ratio of 0.998.
With CGCGAATTGA the switch fluorescence ratio was 0.984.
CGCGAGTTTT showed a switch fluorescence ratio of 1.02.
Work on CGCGCAGTCT yielded a switch fluorescence ratio of 0.931.
CGCGCCCAGT showed a switch fluorescence ratio of 1.03.
CGCGCTAATG gave a switch fluorescence ratio of 1.1.
CGCGCTCCGA showed a switch fluorescence ratio of 1.39.
With CGCGCTTGCC the switch fluorescence ratio was 1.03.
CGCGGACCTG showed a switch fluorescence ratio of 0.946.
For CGCGGAGCAA, the switch fluorescence ratio was 6.
Work on CGCGGCAAAT yielded a switch fluorescence ratio of 1.56.
In the case of CGCGGCCTAC, the switch fluorescence ratio is reported as 2.67.
CGCGGGAG showed a switch fluorescence ratio of 1.03.
CGCGGGCTGA gave a switch fluorescence ratio of 1.01.
Sequence CGCGGGGTTG has a switch fluorescence ratio of 1.02.
For CGCGGTCGAG, the switch fluorescence ratio was 1.09.
For CGCGTAGAAA, the switch fluorescence ratio was 1.08.
For CGCGTAGGGT, the switch fluorescence ratio was 1.02.
In the case of CGCGTATATG, the switch fluorescence ratio is reported as 1.04.
Sequence CGCGTCTGCA has a switch fluorescence ratio of 1.02.
CGCGTGGAGT gave a switch fluorescence ratio of 1.08.
CGCTAATTAT was tested, and the switch fluorescence ratio was 1.13.
Sequence CGCTACGTAC has a switch fluorescence ratio of 2.03.
Sequence CGCTACTCAA has a switch fluorescence ratio of 3.13.
In the case of CGCTACTGAA, the switch fluorescence ratio is reported as 1.01.
CGCTCCTGGG showed a switch fluorescence ratio of 1.1.
CGCTCGTGCC showed a switch fluorescence ratio of 1.02.
Sequence CGCTGAGACC has a switch fluorescence ratio of 1.1.
Work on CGCTGATTCC yielded a switch fluorescence ratio of 1.29.
Work on CGCTGCCTCC yielded a switch fluorescence ratio of 2.54.
Sequence CGCTGCGTCC has a switch fluorescence ratio of 1.09.
Work on CGCTGCTGA yielded a switch fluorescence ratio of 1.04.
CGCTGGTAGC was tested, and the switch fluorescence ratio was 0.994.
CGCTGGTGTA showed a switch fluorescence ratio of 1.01.
With CGCTGTACAC the switch fluorescence ratio was 1.46.
With CGCTGTACGC the switch fluorescence ratio was 1.84.
Sequence CGCTGTATGC has a switch fluorescence ratio of 1.13.
With CGCTGTTCCA the switch fluorescence ratio was 0.99.
Sequence CGCTGTTGTG has a switch fluorescence ratio of 0.99.
CGCTTACGGA showed a switch fluorescence ratio of 1.16.
For CGCTTCATAG, the switch fluorescence ratio was 1.17.
For CGCTTCCTGT, the switch fluorescence ratio was 1.08.
For CGCTTGTAAC, the switch fluorescence ratio was 1.22.
Sequence CGGAACGGGC has a switch fluorescence ratio of 0.966.
In the case of CGGAAGGGA, the switch fluorescence ratio is reported as 1.03.
For CGGAAGTCCT, the switch fluorescence ratio was 1.02.
In the case of CGGAATATAG, the switch fluorescence ratio is reported as 1.
For CGGAATCGGC, the switch fluorescence ratio was 0.933.
With CGGAATTAAA the switch fluorescence ratio was 0.98.
For CGGACAAAGG, the switch fluorescence ratio was 0.996.
In the case of CGGACAATAG, the switch fluorescence ratio is reported as 1.21.
Sequence CGGACAGAT has a switch fluorescence ratio of 1.06.
Sequence CGGACAGTCC has a switch fluorescence ratio of 1.02.
CGGACGGGG showed a switch fluorescence ratio of 1.
CGGACGTCTT gave a switch fluorescence ratio of 1.02.
CGGACTGGAG was tested, and the switch fluorescence ratio was 1.03.
CGGACTTGAT was tested, and the switch fluorescence ratio was 0.988.
CGGAGCGGGA gave a switch fluorescence ratio of 1.11.
In the case of CGGAGGGAAG, the switch fluorescence ratio is reported as 1.03.
CGGAGGGACA showed a switch fluorescence ratio of 1.01.
Sequence CGGAGGTAAA has a switch fluorescence ratio of 1.04.
Work on CGGAGTACTG yielded a switch fluorescence ratio of 1.15.
Work on CGGATAGGT yielded a switch fluorescence ratio of 0.994.
With CGGATATTTC the switch fluorescence ratio was 1.03.
CGGATCAAG showed a switch fluorescence ratio of 0.996.
For CGGATCACGG, the switch fluorescence ratio was 0.975.
Sequence CGGATCCGCG has a switch fluorescence ratio of 1.01.
Work on CGGATCTGTG yielded a switch fluorescence ratio of 0.983.
In the case of CGGATGATTT, the switch fluorescence ratio is reported as 0.988.
With CGGATTCTCC the switch fluorescence ratio was 1.29.
CGGCAAAGCG gave a switch fluorescence ratio of 0.998.
Sequence CGGCAAAGGA has a switch fluorescence ratio of 0.984.
With CGGCAAGGG the switch fluorescence ratio was 1.67.
CGGCAATTTG gave a switch fluorescence ratio of 1.04.
With CGGCACGGCA the switch fluorescence ratio was 0.988.
For CGGCACGGCG, the switch fluorescence ratio was 0.989.
With CGGCACGGTG the switch fluorescence ratio was 1.04.
With CGGCATGCAA the switch fluorescence ratio was 1.55.
Work on CGGCCAGCGG yielded a switch fluorescence ratio of 1.
For CGGCCCTCTT, the switch fluorescence ratio was 0.977.
In the case of CGGCCCTTTT, the switch fluorescence ratio is reported as 1.02.
With CGGCCGTGGC the switch fluorescence ratio was 1.01.
In the case of CGGCCTGGGT, the switch fluorescence ratio is reported as 1.
With CGGCGACTCA the switch fluorescence ratio was 0.993.
CGGCGAGATC was tested, and the switch fluorescence ratio was 1.05.
CGGCGAGCAC was tested, and the switch fluorescence ratio was 1.04.
In the case of CGGCGCAGTG, the switch fluorescence ratio is reported as 1.07.
CGGCGCTAGA showed a switch fluorescence ratio of 1.07.
Sequence CGGCGCTCGC has a switch fluorescence ratio of 1.07.
CGGCGGAATG showed a switch fluorescence ratio of 1.08.
CGGCGGAC showed a switch fluorescence ratio of 1.26.
With CGGCGGACTA the switch fluorescence ratio was 0.993.
Sequence CGGCGGGGCG has a switch fluorescence ratio of 0.997.
CGGCGGTTGG showed a switch fluorescence ratio of 0.982.
With CGGCGTGACT the switch fluorescence ratio was 0.975.
In the case of CGGCGTTAGT, the switch fluorescence ratio is reported as 0.984.
In the case of CGGCGTTTT, the switch fluorescence ratio is reported as 0.998.
CGGCTAGATG showed a switch fluorescence ratio of 0.968.
CGGCTATGAA gave a switch fluorescence ratio of 1.04.
In the case of CGGCTGGCTC, the switch fluorescence ratio is reported as 1.04.
CGGCTGTTCT showed a switch fluorescence ratio of 1.02.
CGGCTTCCGT was tested, and the switch fluorescence ratio was 0.962.
Sequence CGGCTTGACG has a switch fluorescence ratio of 0.948.
With CGGCTTTAAA the switch fluorescence ratio was 0.981.
For CGGGAAGGAT, the switch fluorescence ratio was 1.02.
For CGGGAATGGT, the switch fluorescence ratio was 1.
CGGGACCGTA showed a switch fluorescence ratio of 0.977.
CGGGATATGC was tested, and the switch fluorescence ratio was 1.01.
For CGGGATTTCG, the switch fluorescence ratio was 0.984.
CGGGCAAACG was tested, and the switch fluorescence ratio was 0.981.
CGGGCAAATA showed a switch fluorescence ratio of 1.17.
In the case of CGGGCACAA, the switch fluorescence ratio is reported as 1.1.
CGGGCACGCC was tested, and the switch fluorescence ratio was 0.999.
Work on CGGGCACGTA yielded a switch fluorescence ratio of 1.02.
CGGGCACGTT gave a switch fluorescence ratio of 1.
Work on CGGGCATGGT yielded a switch fluorescence ratio of 1.01.
In the case of CGGGCCAGCC, the switch fluorescence ratio is reported as 1.07.
Work on CGGGCCCGGG yielded a switch fluorescence ratio of 0.979.
CGGGCGACGT was tested, and the switch fluorescence ratio was 1.13.
For CGGGCGAGCG, the switch fluorescence ratio was 0.997.
CGGGCGCGAG gave a switch fluorescence ratio of 0.981.
CGGGCGCTAC gave a switch fluorescence ratio of 3.83.
CGGGCTAGC gave a switch fluorescence ratio of 1.03.
CGGGCTCATT showed a switch fluorescence ratio of 1.03.
Sequence CGGGCTGACT has a switch fluorescence ratio of 0.981.
CGGGGAATGA gave a switch fluorescence ratio of 0.957.
Work on CGGGGACATT yielded a switch fluorescence ratio of 1.04.
CGGGGACGCC was tested, and the switch fluorescence ratio was 1.06.
With CGGGGACGCT the switch fluorescence ratio was 0.971.
Sequence CGGGGATCCG has a switch fluorescence ratio of 0.984.
CGGGGATCTG gave a switch fluorescence ratio of 1.01.
CGGGGCGCAA gave a switch fluorescence ratio of 2.
For CGGGGCGGC, the switch fluorescence ratio was 1.05.
CGGGGCTGGT showed a switch fluorescence ratio of 1.01.
CGGGGTGGCC was tested, and the switch fluorescence ratio was 0.949.
In the case of CGGGTATGTC, the switch fluorescence ratio is reported as 0.95.
Work on CGGGTCAAGG yielded a switch fluorescence ratio of 0.97.
CGGGTCCGCC was tested, and the switch fluorescence ratio was 0.959.
Sequence CGGGTCGGTG has a switch fluorescence ratio of 0.966.
For CGGGTCGTCG, the switch fluorescence ratio was 1.01.
Sequence CGGGTGATGA has a switch fluorescence ratio of 1.03.
For CGGGTGGTT, the switch fluorescence ratio was 0.995.
With CGGGTGTCAG the switch fluorescence ratio was 0.943.
Sequence CGGGTTGGAG has a switch fluorescence ratio of 1.01.
With CGGGTTTTAA the switch fluorescence ratio was 0.992.
With CGGGTTTTAG the switch fluorescence ratio was 0.987.
For CGGTAACGTC, the switch fluorescence ratio was 0.953.
With CGGTACATCG the switch fluorescence ratio was 0.941.
CGGTACGGAG gave a switch fluorescence ratio of 0.98.
CGGTACTGGA showed a switch fluorescence ratio of 1.05.
Sequence CGGTAGCAG has a switch fluorescence ratio of 1.
Work on CGGTAGCC yielded a switch fluorescence ratio of 0.983.
In the case of CGGTATATGT, the switch fluorescence ratio is reported as 0.967.
CGGTATCAGG gave a switch fluorescence ratio of 0.986.
In the case of CGGTCATAT, the switch fluorescence ratio is reported as 1.02.
For CGGTCATTAA, the switch fluorescence ratio was 1.
In the case of CGGTCGATCA, the switch fluorescence ratio is reported as 1.01.
CGGTCTGCGG showed a switch fluorescence ratio of 0.956.
With CGGTCTGTAA the switch fluorescence ratio was 1.04.
CGGTGATGGC showed a switch fluorescence ratio of 0.956.
CGGTGCGACT showed a switch fluorescence ratio of 1.04.
With CGGTGCGCGG the switch fluorescence ratio was 1.01.
In the case of CGGTGCGGTA, the switch fluorescence ratio is reported as 1.
In the case of CGGTGGTCGG, the switch fluorescence ratio is reported as 1.02.
With CGGTGTCACG the switch fluorescence ratio was 0.944.
In the case of CGGTGTGCTC, the switch fluorescence ratio is reported as 1.04.
In the case of CGGTGTTTTG, the switch fluorescence ratio is reported as 1.02.
Work on CGGTTAATGT yielded a switch fluorescence ratio of 1.
Work on CGGTTACAAT yielded a switch fluorescence ratio of 1.03.
Work on CGGTTACTCT yielded a switch fluorescence ratio of 1.05.
CGGTTACTTA was tested, and the switch fluorescence ratio was 1.01.
CGGTTAGGGT showed a switch fluorescence ratio of 0.987.
CGGTTATGAT showed a switch fluorescence ratio of 0.971.
Work on CGGTTGTAC yielded a switch fluorescence ratio of 1.16.
In the case of CGGTTGTCTG, the switch fluorescence ratio is reported as 0.965.

— the supplement of paper PMC10126150
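Also: ATP exposure 15 min at 22 °C before imaging.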
